Out of some 73,000 compounds screened, about 2,500 (3.4%) were called active. This list was built around the results that the source calls inconclusive (neither active nor inactive); the mix of calls is not that of the screen. Calls follow the shape of the dose curve; as a rule, active = well fitted inhibition curve with a large enough effect; inconclusive = small, poorly fitted or top-dose-only effect; inactive = no such curve, though single readings can be large or run the other way. Potencies beside an inconclusive call are fits to weak or partial responses and may not hold up.
molecular target: 3-hydroxyacyl-CoA dehydrogenase type-2 (Homo sapiens) (UniProt Q99714); test: qHTS Assay for Inhibitors of HADH2 (Hydroxyacyl-Coenzyme A Dehydrogenase, Type II); conditions: recombinant HADH2, NADH fluorescence, beta-hydroxybutyryl-CoA; activity change, negative = inhibition: at 57.1 µM (top of the series); also: nearly all actives have a fitted effect of over 60% in size
Method in brief: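 Read-out: 360 nm excitation, 450 nm emission, kinetic over 4 min. Conditions: His-tagged human HADH2 20 nM, pH 9.0 Tris with Tween-20, 1 mM NAD+, 90 uM beta-hydroxybutyryl-CoA.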
% is scaled to controls: 0 for no effect and ±100 for the full control effect; potency is read from the fitted curve at half-maximal effect; tags tell the direction and shape of the fitted curve.

Sequence of UniProt Q99714 (Q99714 whole entry, looked up): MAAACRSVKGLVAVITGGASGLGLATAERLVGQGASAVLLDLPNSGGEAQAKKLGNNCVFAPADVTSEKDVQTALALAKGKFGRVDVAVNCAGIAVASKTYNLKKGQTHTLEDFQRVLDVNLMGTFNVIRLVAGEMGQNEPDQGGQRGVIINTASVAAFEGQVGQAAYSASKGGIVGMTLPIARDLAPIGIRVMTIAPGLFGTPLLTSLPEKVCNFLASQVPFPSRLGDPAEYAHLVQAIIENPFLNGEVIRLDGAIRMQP
Sequence of UniProt Q99714 (Q99714 whole entry, looked up): as above

| Structure (SMILES) | Potency | activity change, negative = inhibition |
| --- | --- | --- |
| Nc1[nH]c(=S)[nH]c(=O)c1-c1ccccc1 | inconclusive: 31.6 µM [inhibitor, single point] |  |
| N#Cc1ccccc1NC(=O)c1ccc(-c2ccccc2Cl)o1 | active: 31.6 µM |  |
| COC(=O)c1cc(OC)c(OC)cc1NC(=O)Cn1nnc(-c2ccccc2Cl)n1 | inconclusive: 31.6 µM [inhibitor, single point] |  |
| C=CC1=C(C)C2=Cc3c(C=C)c(C)c4[n]3[Sn+2][n]3c(c(C)c(CCC(=O)O)c3=CC3=NC(=C4)C(C)=C3CCC(=O)O)=CC1=N2 |  | inactive: -7.6% |
| CCc1c(C)sc(NC(=O)c2cc(-c3cc(OC)ccc3OC)on2)c1C#N | inconclusive: 39.8 µM [inhibitor, single point] |  |
| Cc1ccccc1-c1cncnc1N(C)Cc1ccco1 | inconclusive: 39.8 µM [inhibitor, single point] |  |
| COc1ccccc1-n1c(SCC(=O)N2CCOCC2)nc(O)c(Cc2ccccc2)c1=O | inconclusive: 39.8 µM [inhibitor, single point] |  |
| COc1ccccc1N1CCN(C(=O)c2ccc3nc(-c4ccco4)c(-c4ccco4)nc3c2)CC1 | inconclusive: 1 µM [inhibitor, full curve] |  |
| CCc1c(C)sc(NC(=O)c2cnn3cccnc23)c1C#N | inconclusive: 25.1 µM [inhibitor, single point] |  |
| CCOCc1nnc(NC(=O)CSc2ccccc2)s1 | inconclusive: 31.6 µM [inhibitor, single point] |  |
| CCCCNC(=O)c1sc(=S)n2c1[nH]c(=O)c1ccccc12 | inconclusive: 31.6 µM [inhibitor, single point] |  |
| N#Cc1c(N)[nH]c(=S)c(C#N)c1-c1ccccc1 | inconclusive: 6.31 µM [inhibitor, partial curve, poor fit] |  |
| Cc1c(NC(=O)C(C)OC(=O)c2cc3c4ccccc4n(C)c3s2)c(=O)n(-c2ccccc2)n1C (stereo not given) | inconclusive: 25.1 µM [inhibitor, single point] |  |
| c1ccc2oc(NC3=NCN(CC4CCCO4)CN3)nc2c1 (stereo not given) | inconclusive: 3.98 µM [inhibitor, single point] |  |
| CCCCOC(=O)CSc1nc2c(c(=O)[nH]c(=O)n2C)n1C/C=C(\C)Cl | inconclusive: 39.8 µM [inhibitor, single point] |  |
| CO/N=C(/C(=O)N[C@@H]1C(=O)N2C(C(=O)O)=C(COC(N)=O)CS[C@H]12)c1ccco1 | inconclusive: 12.6 µM [inhibitor, partial curve] |  |
| CN(C)CCN1C(=O)CC[C@]2(C)C1=CC[C@@H]1[C@@H]2CC[C@]2(C)[C@H]1CC[C@]2(C)O |  | inactive: 13.2% [at 11.4 µM] |
| COc1ccccc1/C=N/n1cnnc1 | inconclusive: 31.6 µM [inhibitor, single point] |  |
| CCOC(=O)C1CCN(C(=O)CSCc2nc(-c3ccc(OCC)cc3)oc2C)CC1 | inconclusive: 25.1 µM [inhibitor, single point] |  |
| CCOC(=O)c1c(N)sc2c(OC)c(Br)ccc12 |  | inactive: 3.69% |
| Cc1cc(NCCCN2CCOCC2)n2ncc(-c3ccc(Cl)cc3)c2n1 | active: 31.6 µM |  |
| OC1CN=C2CCCc3c2n(c2ccc(Cl)cc32)C1 (stereo not given) | inconclusive: 39.8 µM [inhibitor, single point] |  |
| C[C@@H](C(=O)Cc1ccc2ccccc2c1)[C@@H]1C[C@@]1(C)[C@@H](NP(=O)(c1ccccc1)c1ccccc1)c1ccccc1 |  | inactive: 2.31% |
| CCOC(=O)c1cccc(-n2c(C)nc3ccccc3c2=O)c1 |  | inactive: 8.54% |

| Structure (SMILES) | Potency | activity change, negative = inhibition |
| --- | --- | --- |
| Cc1ccc2cc(CN(CC(C)C)C(=O)C3CCCO3)c(=O)[nH]c2c1 (stereo not given) | inconclusive: 39.8 µM [inhibitor, single point] |  |
| CC(C)OCCCNC(=O)CCN1C(=O)COc2ccccc21 | inconclusive: 0.794 µM [inhibitor, single point] |  |
| O=C(Cn1nc(Cl)nc1Cl)c1cc2ccccc2oc1=O | inconclusive: 15.8 µM [inhibitor, partial curve] |  |
| COc1ccc(C(=O)Nc2ccc(S(=O)(=O)Nc3cc(C)nc(C)n3)cc2)c(OC)c1 | inconclusive: 3.98 µM [inhibitor, partial curve] |  |
| COC(=O)c1ccc(CC(=O)c2ccc(O)cc2O)o1 | inconclusive: 10 µM [inhibitor, partial curve] |  |
| COc1ccc(C2CC(=O)C3=C(C2)Nc2ncnn2C3c2ccccc2C)cc1 (stereo not given) | inconclusive: 31.6 µM [inhibitor, single point] |  |
| CCC(CC)c1nnc(NC(=O)c2c(-c3ccccc3)noc2C)s1 | inconclusive: 25.1 µM [inhibitor, partial curve] |  |
| COC(=O)C1C(=O)C2=C(CC1C)NC(C)=C(C(=O)OCc1ccc(OC)cc1)C2c1ccc(C)o1 (stereo not given) | inconclusive: 39.8 µM [inhibitor, single point] |  |
| CC(C)NC(=O)N1CCC2(CC1)CCN(C(=O)c1cccc(F)c1)CC2 |  | inactive: 0.782% |
| CC(C)(C)c1cc(O)c(C(C)(C)C)cc1O |  | inactive: 4.78% |
| CCCn1c(-c2ccc(F)cc2)nc2c(NCCCN3CCOCC3)nc(C)nc21 | inconclusive: 39.8 µM [inhibitor, single point] |  |
| Nc1c[n+](N2CCOCC2)no1 | inconclusive: 3.16 µM [inhibitor, full curve, poor fit] |  |
| CCOC(=O)C1=C(N2CCCCC2)c2cc3c(n2C1=O)CCCC3 |  | inactive: -4.92% |
| CN(C)C(=O)c1ccc(-c2ccc3ncnc(NCc4cccs4)c3c2)cc1 | inconclusive: 39.8 µM [inhibitor, single point] |  |
| Cc1cc(=O)oc2cc(OCC(=O)OCc3nnc(-c4ccccc4)o3)ccc12 | inconclusive: 31.6 µM [inhibitor, single point] |  |
| COCc1cc(C)nc(Nc2ccccc2C)c1C#N | inconclusive: 39.8 µM [inhibitor, single point] |  |
| CN(C(=O)c1cccnc1)c1nnc(-c2cccnc2)s1 |  | inactive: 20.8% |
| CCOC(=O)NC1(Nc2ccc(Cl)cn2)Oc2ccccc2O1 | inconclusive: 0.251 µM [inhibitor, full curve] |  |
| COC(=O)Cc1c(C)c2ccc(OCC(C)=O)c(C)c2oc1=O | active: 25.1 µM |  |
| O=C(NC12CC3CC(CC(C3)C1)C2)c1ccccc1O | inconclusive: 20 µM [inhibitor, single point] |  |
| Cc1cc(C(=O)Nc2nnc(-c3ccccc3)s2)no1 |  | inactive: -24.9% |
| CCN1CCN(CCNC(=O)CS(=O)(=O)Cc2nc(-c3ccc(C)cc3)oc2C)CC1 |  | inactive: 12.1% |
| O=C1C=C(NCCc2cc(Br)c(O)c(Br)c2)C(=O)c2ncccc21 | active: 0.631 µM |  |
| CC(C)C[C@H]1C(=O)N2CCC[C@@H]2[C@]2(O)O[C@](NC(=O)[C@H]3C=C4c5cccc6[nH]c(Br)c(c56)C[C@H]4N(C)C3)(C(C)C)C(=O)N12 | inactive |  |

| Structure (SMILES) | Potency | activity change, negative = inhibition |
| --- | --- | --- |
| O=C(CC12CC3CC(C1)CC(CC(=O)NC1=NCCS1)(C3)C2)NC1=NCCS1 | inconclusive: 6.31 µM [inhibitor, single point] |  |
| O=C(CN(Cc1ccccc1F)C(=O)Cn1nnc(-c2cccs2)n1)NCC1CCCO1 (stereo not given) |  | inactive: 3.66% |
| CCCCC(=O)NC(Nc1nc(C2CC2)cs1)(C(=O)OCC)C(F)(F)F (stereo not given) | inconclusive: 25.1 µM [inhibitor, single point] |  |
| COc1ccc2c(c1)c1nnc(SC)nc1n2C | inconclusive: 39.8 µM [inhibitor, single point] |  |
| CCC(C)NC(=O)CC1Oc2ccc(Cl)cc2NC1=O (stereo not given) | inconclusive: 31.6 µM [inhibitor, single point] |  |
| C=CCN1C(=O)/C(=C2/Sc3ccccc3N2CCCS(=O)(=O)O)SC1=S | active: 10 µM |  |
| O=C1c2ccccc2NC(c2ccccn2)N1c1ccc(Cl)cc1 (stereo not given) | inconclusive: 31.6 µM [inhibitor, single point] |  |
| CC(C)n1c(-c2ccco2)csc1=Nc1cccnc1 | inconclusive: 12.6 µM [inhibitor, partial curve] |  |
| COc1cccc(NC2c3ccccc3C(=O)N2Cc2ccco2)c1 (stereo not given) | inconclusive: 12.6 µM [inhibitor, partial curve] |  |
| O=c1cc(-c2ccccc2)oc2cc(O[C@H]3O[C@H](CO)[C@@H](O)[C@H](O)[C@@H]3O)c(O)c(O)c12 | active: 0.794 µM |  |
| CCN1CCN(C(=O)c2cn(CCOC)c(=O)c3c2c2ccccc2n3C)CC1 | inconclusive: 39.8 µM [inhibitor, single point] |  |
| Cc1ccccc1NS(=O)(=O)c1cc(C(=O)NCc2ccco2)ccc1C |  | inactive: -10.1% |
| COc1ccc(CCNc2oc(-c3ccccc3OC)nc2C#N)cc1 | active: 12.6 µM |  |
| COc1ccc(Cl)cc1NC(=O)CN1C(=O)CCS(=O)(=O)c2ccccc21 | inconclusive: 39.8 µM [inhibitor, single point] |  |
| COc1ccc2[nH]c(C(=O)O)c(CCC(=O)O)c2c1 | active: 25.1 µM |  |
| CCOc1ccc(N2C(=O)c3cccnc3C2Nc2ccc(F)cc2)cc1 (stereo not given) | inconclusive: 25.1 µM [inhibitor, partial curve] |  |
| COC1(OC)N=C(NC(=O)Nc2ccccc2)C2(C#N)C(c3ccccc3)C12C#N (stereo not given) | inconclusive: 2 µM [inhibitor, full curve] |  |
| Cc1ccc2nc(SCCC#N)nc(C)c2c1 |  | inactive: -17.4% |
| O=C(CSc1nc2cc(S(=O)(=O)N3CCOCC3)ccc2o1)NC1CCCc2ccccc21 (stereo not given) | active: 3.16 µM |  |
| O=C(c1cnccn1)N1CCC[C@@]2(CCN(c3ccncc3)C2)C1 |  | inactive: -7.72% |
| COc1ccc(OC)c(N2C(=O)CC(Cc3ccc(C)cc3)C2=O)c1 (stereo not given) |  | inactive: 13.3% |
| COc1ccc(-c2nc3cnc(N4CCN(C)CC4)nc3n(C)c2=O)cc1 |  | inactive: -1.31% |
